The source of these data is patent US20120201746A1 (AbbVie / Abbott, published 2012).

Residue numbers refer to the chain shown, from its start.

Test [1] concerns the target recombinant human IL-18 (human, UniProt Q14116 37-193). Kind of test: cell-based or functional assay.
For test [2], the target named is T1, human IL-12 (human, UniProt P29459 23-219; P29460 23-328).
T1 sequence (looked up) 1: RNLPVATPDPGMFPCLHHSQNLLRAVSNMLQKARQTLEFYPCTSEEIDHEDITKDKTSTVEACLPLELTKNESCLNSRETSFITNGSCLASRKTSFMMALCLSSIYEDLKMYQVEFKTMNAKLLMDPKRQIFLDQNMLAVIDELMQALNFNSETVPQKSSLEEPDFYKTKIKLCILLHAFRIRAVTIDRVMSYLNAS
T1 sequence (looked up) 2: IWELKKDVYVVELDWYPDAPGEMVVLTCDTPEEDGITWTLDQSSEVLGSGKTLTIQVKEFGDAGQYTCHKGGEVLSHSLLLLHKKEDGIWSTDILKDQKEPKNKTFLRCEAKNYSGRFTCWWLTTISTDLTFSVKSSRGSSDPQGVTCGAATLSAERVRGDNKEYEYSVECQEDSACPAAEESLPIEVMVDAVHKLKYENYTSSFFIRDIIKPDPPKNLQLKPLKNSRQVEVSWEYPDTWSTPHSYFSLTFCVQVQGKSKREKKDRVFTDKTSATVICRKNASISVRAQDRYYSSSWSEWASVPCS
Kind of test: cell-based or functional assay.

Test [3] deals with T2, Recombinant Human IL-1β (human, UniProt P01584 117-269).
T2 construct: also called IL-1b
Kind of test: SPR (BIAcore); *off-rate at the limit of dissociation after 1 hour. (In general: In SPR one partner is held on a chip, and binding of the other changes the refractive index at the surface.)

The target in test [4] is T2, Recombinant Human IL-1β. Kind of test: SPR (BIAcore).
Test [5] addresses T3, hB7.1-Fc (human, UniProt P33681 35-242).
T3 construct: Titrated in solution over the coated CTLA4 proteins; also called human B7.1; not shown: Fc part of hB7.1-Fc
T3 sequence (looked up): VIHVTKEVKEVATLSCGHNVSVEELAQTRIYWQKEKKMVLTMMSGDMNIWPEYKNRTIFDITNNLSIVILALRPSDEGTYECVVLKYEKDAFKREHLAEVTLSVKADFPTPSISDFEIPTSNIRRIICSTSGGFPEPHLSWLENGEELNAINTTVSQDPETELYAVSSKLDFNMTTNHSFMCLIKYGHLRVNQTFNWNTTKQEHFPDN
Kind of test: sandwich ELISA: CTLA4 protein coated at 1 µg/ml, hB7.1-Fc titrated, detected with biotinylated anti-hB7.1. Background: ELISA stands for enzyme-linked immunosorbent assay.

B1: IL12/IL18/PGE2 TVD (other)
heavy: EVTLRESGPALVKPTQTLTLTCTFSGFSLSKSVMGVSWIRQPPGKALEWLAHIYWDDDKYYNPSLKSRLTISKDTSKNQVVLTMTNMDPVDTATYYCARRGIRSAMDYWGQGTTVTVSSASTKGPEVQLVQSGTEVKKPGESLKISCKGSGYTVTSYWIGWVRQMPGKGLEWMGFIYPGDSETRYSPTFQGQVTISADKSFNTAFLQWSSLKASDTAMYYCARVGSGWYPYTFDIWGQGTMVTVSSASTKGPEVQLVQSGAEVKKPGASVKVSCKASGYTFTKYWLGWVRQAPGQGLEWMGDIYPGYDYTHYNEKFKDRVTLTTDTSTSTAYMELRSLRSDDTAVYYCARSDGSSTYWGQGTLVTVSS[human IgG1 constant region not spelt out]
light: DIVMTQSPDSLAVSLGERATINCKASQSVSNDVAWYQQKPGQPPKLLIYYASNRYTGVPDRFSGSGSGTDFTLTISSLQAEDVAVYYCQQDYNSPWTFGGGTKVEIKRTVAAPEIVMTQSPATLSVSPGERATLSCRASESISSNLAWYQQKPGQAPRLFIYTASTRATDIPARFSGSGSGTEFTLTISSLQSEDFAVYYCQQYNNWPSITFGQGTRLEIKRTVAAPDVLMTQTPLSLPVTPGEPASISCTSSQNIVHSNGNTYLEWYLQKPGQSPQLLIYKVSNRFSGVPDRFSGSGSGTDFTLKISRVEAEDVGVYYCFQVSHVPYTFGGGTKVEIKRTVAAPSVFIFPPSDEQLKSGTASVVCLLNNFYPREAKVQWKVDNALQSGNSQESVTEQDSKDSTYSLSSTLTLSKADYEKHKVYACEVTHQGLSSPVTKSFNRGEC
On to B1, for which the “Neutralization of IL-18 IC50 (nM); IFN-γ release from KG-1 cells” value in test [1] came out at 0.579 nM. Besides, the “Neutralization of IL-12 IC50 (nM); IFN-γ release from PHA blast cells” value in test [2] amounted to 4.57 nM.

B2: IL1b DA1 Fc (Fc fusion)
chain: EVQLLESGGGLVQPGGSLRLSCAASGFTFADEGMMWVRQAPGKGLEWVSRITYSGKNTYYADSVKGRFTISRDNSKNTLYLQMNSLRAEDTAVYYCAKYTGRILGHHLFDYWGQGTLVTVSS[human IgG1 Fc not spelt out]
notes: Domain antibody-Fc with wild-type Fc; also called IL1beta DA1 Fc
Usually koff stands for the rate constant with which the complex falls apart. As usually defined, the Kd is the constant that tells how readily two partners part at equilibrium. The kon is the second-order rate constant of association. B2: the koff in test [3] was 4e-06 s⁻¹. For the same molecule, in test [4], the Kd is 0.027 nM and the kon came to 150000 M⁻¹ s⁻¹.

B3: IL1b DA2 Fc (Fc fusion)
chain: B2 chain with D31E, G33S, M34W, T52G, Y53Q, S54D, A61R, D62E, S63D, L104M
notes: Domain antibody-Fc with wild-type Fc; also called IL1beta DA2 Fc
As for B3, the koff in test [3] was 3.9e-06 s⁻¹. Further, in test [4], the Kd is 0.012 nM and the kon is 340000 M⁻¹ s⁻¹.

B4: hCTLA4ECD Fc (Fc fusion)
chain: not shown
notes: also called CTLA4-Fc; parental molecule hCTLA4ECD Fc
What is called EC50 is the concentration at which the effect is half-maximal. As for B4, the EC50 in test [5] came out at 0.036 µg/mL.

B5: ½ hCTLA4ECD Fc (Fc fusion)
chain: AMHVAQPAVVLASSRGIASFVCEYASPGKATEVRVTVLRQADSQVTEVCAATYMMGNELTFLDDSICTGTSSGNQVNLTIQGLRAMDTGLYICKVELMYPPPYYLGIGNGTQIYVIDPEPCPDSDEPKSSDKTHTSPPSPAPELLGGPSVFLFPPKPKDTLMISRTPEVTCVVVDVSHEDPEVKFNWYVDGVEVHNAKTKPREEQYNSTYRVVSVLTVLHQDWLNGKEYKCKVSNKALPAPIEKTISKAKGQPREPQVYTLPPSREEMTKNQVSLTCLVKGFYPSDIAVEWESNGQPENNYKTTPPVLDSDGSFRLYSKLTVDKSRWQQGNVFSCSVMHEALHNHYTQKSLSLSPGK
notes: Half receptor-Fc with Fc-Mut18; 98 % half-Ig by SEC; also called half hCTLA4ECD Fc; half-Ig hCTLA4ECD Fc
The molecule B5 gave an EC50 in test [5] of 0.53 µg/mL.
